Some of the results follow. Each Rep nickase domain was tested in vitro on the same pool of single strands (1 h at 37 °C, 3 µM enzyme); the outer parts of the 90-letter strands are left off. Values are log2 of uncut reads against the no-enzyme pool; strong cutting gives strongly negative numbers. There is no active / inactive call. Reads are scaled to the total, so uncut sequences can rise above 0 when many others are cut.
System: T1, Rep nickase domain of Muscovy duck circovirus
T1 sequence (residues 1-111 of Rep, tag left off): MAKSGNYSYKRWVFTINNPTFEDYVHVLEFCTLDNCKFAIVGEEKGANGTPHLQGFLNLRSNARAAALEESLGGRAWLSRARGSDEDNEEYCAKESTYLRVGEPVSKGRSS
Assay: uncleaved DNA left, log2 of reads against the no-enzyme library (log2 ratio); higher = less cleavage (more negative = more Rep cleavage of the k-mer); sequences stand for … in CTCGTCCG…ACCGGAGA
Description: (§1)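 A pool of 90-nt single-stranded DNAs with seven random bases just before the constant AC of the nick site (name = the seven bases) was cut by 3 µM recombinant His6-SUMO-tagged Rep nickase domain (300 nM DNA, 50 mM HEPES pH 8.0, 50 mM NaCl, 1 mM MnCl2, 1 h, 37 °C, three replicates). Uncut DNA was amplified and sequenced.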

| Sequence | uncleaved DNA left (log2) |
| --- | --- |
| AAGCCGA | -0.0187 |
| ACCGTAT | -0.0195 |
| GCCTTGA | -0.271 |
| GACTGTG | 0.0771 |
| CCATACT | -3.37 |
| TAGTGGT | -0.813 |
| TAATGAA | -0.916 |
| TTCGCGT | 0.012 |
| TTAATTA | 0.089 |
| TCATACT | -3.76 |
| ATTCTCG | -0.109 |
| TAAGGGT | -0.0447 |
| GCTCTAT | -0.0621 |
| TGCTTCT | -1.42 |
| GATGAGT | 0.178 |
| ATATCAC | 0.00617 |
| ATGATTC | -0.0381 |
| ATTTACG | -0.0796 |
| TAACTGC | 0.0326 |
| ATTATTT | -0.81 |

| Sequence | uncleaved DNA left (log2) |
| --- | --- |
| TTAATTG | 0.0564 |
| CTCGCTA | 0.17 |
| CGGTTAC | -0.0478 |
| AACGCCT | 0.0141 |
| CCGCGCG | 0.00481 |
| CCCAGAC | 0.0197 |
| AGTCCGC | 0.0121 |
| CAGCGGT | -0.129 |
| CTGCTAT | 0.174 |
| AGCCTTA | 0.0651 |
| TTCCGGT | -0.155 |
| ACATAGG | 0.0779 |
| AACGATG | 0.00114 |
| CTATACT | -3.78 |
| ATGGTGA | 0.0432 |
| CGCGTCA | 0.161 |
| AACAATT | -0.122 |
| GAACTGT | 0.056 |
| GACAGAG | -0.0354 |
| GACGTGA | -0.0471 |

System: T2, Rep nickase domain of banana bunchy top virus
T2 sequence (residues 1-94 of Rep, tag left off): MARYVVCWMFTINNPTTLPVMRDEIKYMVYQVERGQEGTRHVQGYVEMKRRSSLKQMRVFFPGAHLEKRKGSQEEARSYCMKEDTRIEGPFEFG
Assay: as above
Description: as §1

| Sequence | uncleaved DNA left (log2) |
| --- | --- |
| AAGCCGA | 0.00903 |
| ACCGTAT | -0.122 |
| GCCTTGA | -0.159 |
| GACTGTG | 0.000535 |
| CCATACT | -0.376 |
| TAGTGGT | -1.81 |
| TAATGAA | -0.0596 |
| TTCGCGT | -0.0412 |
| TTAATTA | 0.056 |
| TCATACT | -0.306 |
| ATTCTCG | -0.0531 |
| TAAGGGT | 0.0786 |
| GCTCTAT | 0.0629 |
| TGCTTCT | -0.24 |
| GATGAGT | 0.0929 |
| ATATCAC | 0.062 |
| ATGATTC | -0.0285 |
| ATTTACG | -0.0422 |
| TAACTGC | -0.098 |
| ATTATTT | -0.572 |

| Sequence | uncleaved DNA left (log2) |
| --- | --- |
| TTAATTG | -0.0339 |
| CTCGCTA | 0.05 |
| CGGTTAC | 0.0263 |
| AACGCCT | -0.00782 |
| CCGCGCG | -0.0438 |
| CCCAGAC | -0.0472 |
| AGTCCGC | -0.0405 |
| CAGCGGT | -0.231 |
| CTGCTAT | 0.00973 |
| AGCCTTA | -0.0429 |
| TTCCGGT | -0.148 |
| ACATAGG | 0.129 |
| AACGATG | 0.0136 |
| CTATACT | -0.838 |
| ATGGTGA | -0.0406 |
| CGCGTCA | 0.00808 |
| AACAATT | -0.425 |
| GAACTGT | -0.0685 |
| GACAGAG | 0.0885 |
| GACGTGA | -0.263 |

System: T3, Rep nickase domain of cabbage leaf curl virus
T3 sequence (residues 1-116 of Rep, tag left off): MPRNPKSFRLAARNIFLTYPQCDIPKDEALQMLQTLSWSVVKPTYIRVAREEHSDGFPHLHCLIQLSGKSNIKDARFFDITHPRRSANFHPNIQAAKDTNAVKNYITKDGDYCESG
Assay: as above
Description: as §1

| Sequence | uncleaved DNA left (log2) |
| --- | --- |
| AAGCCGA | -0.391 |
| ACCGTAT | -0.134 |
| GCCTTGA | -0.221 |
| GACTGTG | -0.602 |
| CCATACT | -2 |
| TAGTGGT | -1.93 |
| TAATGAA | -2.75 |
| TTCGCGT | -0.736 |
| TTAATTA | 0.35 |
| TCATACT | -3.22 |
| ATTCTCG | -0.918 |
| TAAGGGT | 0.381 |
| GCTCTAT | 0.147 |
| TGCTTCT | -0.22 |
| GATGAGT | -0.00673 |
| ATATCAC | -0.112 |
| ATGATTC | 0.0343 |
| ATTTACG | -0.96 |
| TAACTGC | -0.305 |
| ATTATTT | -0.0711 |

| Sequence | uncleaved DNA left (log2) |
| --- | --- |
| TTAATTG | -0.498 |
| CTCGCTA | -0.0917 |
| CGGTTAC | 0.128 |
| AACGCCT | -0.336 |
| CCGCGCG | -0.522 |
| CCCAGAC | 0.237 |
| AGTCCGC | -0.236 |
| CAGCGGT | -0.143 |
| CTGCTAT | 0.0933 |
| AGCCTTA | 0.25 |
| TTCCGGT | 0.439 |
| ACATAGG | -0.701 |
| AACGATG | 0.0949 |
| CTATACT | -3.19 |
| ATGGTGA | 0.0102 |
| CGCGTCA | -0.075 |
| AACAATT | -1.23 |
| GAACTGT | 0.082 |
| GACAGAG | -0.0962 |
| GACGTGA | 0.102 |

System: T4, Rep nickase domain of chickpea chlorotic dwarf virus
T4 sequence (residues 1-124 of Rep, tag left off): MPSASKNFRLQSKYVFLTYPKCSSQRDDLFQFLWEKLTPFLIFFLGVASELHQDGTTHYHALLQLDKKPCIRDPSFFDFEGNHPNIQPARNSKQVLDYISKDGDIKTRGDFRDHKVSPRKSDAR
Assay: as above
Description: as §1

| Sequence | uncleaved DNA left (log2) |
| --- | --- |
| AAGCCGA | -0.551 |
| ACCGTAT | -0.37 |
| GCCTTGA | 0.0694 |
| GACTGTG | -0.407 |
| CCATACT | -3.19 |
| TAGTGGT | -2.15 |
| TAATGAA | -2.25 |
| TTCGCGT | -0.406 |
| TTAATTA | -0.691 |
| TCATACT | -3.05 |
| ATTCTCG | -0.526 |
| TAAGGGT | 2.87 |
| GCTCTAT | 0.255 |
| TGCTTCT | -2.13 |
| GATGAGT | -0.243 |
| ATATCAC | -0.43 |
| ATGATTC | -0.146 |
| ATTTACG | -0.396 |
| TAACTGC | -0.929 |
| ATTATTT | -2.69 |

| Sequence | uncleaved DNA left (log2) |
| --- | --- |
| TTAATTG | -0.713 |
| CTCGCTA | -0.954 |
| CGGTTAC | -0.326 |
| AACGCCT | -2.48 |
| CCGCGCG | 0.316 |
| CCCAGAC | 0.243 |
| AGTCCGC | -0.213 |
| CAGCGGT | 0.232 |
| CTGCTAT | -0.587 |
| AGCCTTA | 0.122 |
| TTCCGGT | 0.648 |
| ACATAGG | -0.382 |
| AACGATG | 0.871 |
| CTATACT | -3.16 |
| ATGGTGA | -0.0105 |
| CGCGTCA | -0.546 |
| AACAATT | -3.32 |
| GAACTGT | 0.24 |
| GACAGAG | 0.179 |
| GACGTGA | 0.396 |

System: T5, Rep nickase domain of faba bean necrotic yellows virus
T5 sequence (residues 1-98 of Rep, tag left off): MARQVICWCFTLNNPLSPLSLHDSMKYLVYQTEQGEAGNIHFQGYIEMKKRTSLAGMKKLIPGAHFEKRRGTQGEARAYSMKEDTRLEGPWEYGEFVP
Assay: as above
Description: as §1

| Sequence | uncleaved DNA left (log2) |
| --- | --- |
| AAGCCGA | -0.0453 |
| ACCGTAT | -0.0642 |
| GCCTTGA | -0.15 |
| GACTGTG | -0.00639 |
| CCATACT | -0.0245 |
| TAGTGGT | -1.27 |
| TAATGAA | 0.0547 |
| TTCGCGT | -0.0621 |
| TTAATTA | 0.185 |
| TCATACT | -0.0384 |
| ATTCTCG | -0.0657 |
| TAAGGGT | -0.0496 |
| GCTCTAT | 0.0912 |
| TGCTTCT | -0.176 |
| GATGAGT | 0.126 |
| ATATCAC | 0.0993 |
| ATGATTC | -0.0568 |
| ATTTACG | -0.021 |
| TAACTGC | -0.00263 |
| ATTATTT | -0.0422 |

| Sequence | uncleaved DNA left (log2) |
| --- | --- |
| TTAATTG | 0.0632 |
| CTCGCTA | 0.158 |
| CGGTTAC | -0.00497 |
| AACGCCT | 0.109 |
| CCGCGCG | 0.0827 |
| CCCAGAC | 0.0766 |
| AGTCCGC | -0.0861 |
| CAGCGGT | -0.123 |
| CTGCTAT | 0.225 |
| AGCCTTA | -0.0838 |
| TTCCGGT | -0.0284 |
| ACATAGG | 0.0646 |
| AACGATG | -0.0673 |
| CTATACT | -0.106 |
| ATGGTGA | 0.0151 |
| CGCGTCA | -0.0857 |
| AACAATT | -0.0776 |
| GAACTGT | 0.0236 |
| GACAGAG | -0.0973 |
| GACGTGA | -0.185 |

Reference: the supplement of paper PMC7826260
